# Results as given in the supplement of paper PMC8728848.
# Some of the results follow.
# Legend:
# Experiment in all cases: glycan array binding signal (z-score within array); higher = stronger binding
# Settings in all cases: glycan notation: IUPAC condensed, linker removed; mutation: R343A
# Fuc(a1-2)Gal = target: Fuc(a1-2)Gal
# Method in brief: (§1)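 From the Consortium for Functional Glycomics database, 3228 arrays were curated, keeping only those whose protein sequence was available. Binding is given as a within-array Z-score averaged across arrays sharing a protein sequence and across linkers. Negative Z-scores can be read as non-binding.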
# Fuc(a1-2)Gal(b1-3)GalNAc = target: Fuc(a1-2)Gal(b1-3)GalNAc
# Method in brief: as §1
# [1] = target: Fuc(a1-2)Gal(b1-3)GalNAc(b1-3)Gal
# Method in brief: as §1
# [2] = target: Fuc(a1-2)Gal(b1-3)GalNAc(b1-3)Gal(a1-4)Gal(b1-4)Glc
# Method in brief: as §1
# [3] = target: Fuc(a1-2)Gal(b1-3)GalNAc(b1-4)[Neu5Ac(a2-3)]Gal(b1-4)Glc
# Method in brief: as §1
# Fuc(a1-2)Gal(b1-3)GlcNAc = target: Fuc(a1-2)Gal(b1-3)GlcNAc
# Method in brief: as §1
# [4] = target: Fuc(a1-2)Gal(b1-3)GlcNAc(b1-3)Gal(b1-4)Glc
# Method in brief: as §1
# [5] = target: Fuc(a1-2)Gal(b1-3)[Fuc(a1-4)]GlcNAc
# Method in brief: as §1
# Fuc(a1-2)Gal(b1-4)Glc = target: Fuc(a1-2)Gal(b1-4)Glc
# Method in brief: as §1
# Fuc(a1-2)Gal(b1-4)Glc6S = target: Fuc(a1-2)Gal(b1-4)Glc6S
# Method in brief: as §1
# Fuc(a1-2)Gal(b1-4)GlcNAc = target: Fuc(a1-2)Gal(b1-4)GlcNAc
# Method in brief: as §1
# [6] = target: Fuc(a1-2)Gal(b1-4)GlcNAc(b1-3)Gal(b1-4)GlcNAc
# Method in brief: as §1
# [7] = target: Fuc(a1-2)Gal(b1-4)GlcNAc(b1-3)Gal(b1-4)GlcNAc(b1-3)Gal(b1-4)GlcNAc
# Method in brief: as §1
# [8] = target: Fuc(a1-2)Gal(b1-4)GlcNAc6S
# Method in brief: as §1
# [9] = target: Fuc(a1-2)Gal(b1-4)[Fuc(a1-3)]GlcNAc
# Method in brief: as §1
# [10] = target: Fuc(a1-2)Gal(b1-4)[Fuc(a1-3)]GlcNAc(b1-3)Gal(b1-4)[Fuc(a1-3)]GlcNAc
# Method in brief: as §1
# [11] = target: Fuc(a1-2)Gal(b1-4)[Fuc(a1-3)]GlcNAc(b1-3)Gal(b1-4)[Fuc(a1-3)]GlcNAc(b1-3)Gal(b1-4)[Fuc(a1-3)]GlcNAc
# Method in brief: as §1
# Fuc(a1-2)Gal6S(b1-4)Glc = target: Fuc(a1-2)Gal6S(b1-4)Glc
# Method in brief: as §1
# [12] = target: Fuc(a1-2)Gal6S(b1-4)Glc6S
# Method in brief: as §1
# [13] = target: Fuc(a1-2)Gal6S(b1-4)GlcNAc
# Method in brief: as §1
# Fuc(a1-2)[Gal(a1-3)]Gal = target: Fuc(a1-2)[Gal(a1-3)]Gal
# Method in brief: as §1
# [14] = target: Fuc(a1-2)[Gal(a1-3)]Gal(b1-3)GlcNAc
# Method in brief: as §1
# [15] = target: Fuc(a1-2)[Gal(a1-3)]Gal(b1-4)Glc
# Method in brief: as §1
# [16] = target: Fuc(a1-2)[Gal(a1-3)]Gal(b1-4)GlcNAc
# Method in brief: as §1
# [17] = target: Fuc(a1-2)[Gal(a1-3)]Gal(b1-4)[Fuc(a1-3)]GlcNAc
# Method in brief: as §1
# [18] = target: Fuc(a1-2)[Gal(a1-4)]Gal(b1-4)GlcNAc
# Method in brief: as §1
# [19] = target: Fuc(a1-2)[GalNAc(a1-3)]Gal
# Method in brief: as §1
# [20] = target: Fuc(a1-2)[GalNAc(a1-3)]Gal(b1-3)GlcNAc
# Method in brief: as §1
# [21] = target: Fuc(a1-2)[GalNAc(a1-3)]Gal(b1-4)Glc
# Method in brief: as §1
# [22] = target: Fuc(a1-2)[GalNAc(a1-3)]Gal(b1-4)GlcNAc
# Method in brief: as §1
binder,measurement,setting,value
Surfactant Protein D (Human); Neck + Carbohydrate Recognition Domain (NCRD) (Homo sapiens) (protein) MLLFLLSALVLLTQPLGYLEAEMKTYSHRTMPSACTLVMCSSVESGLPGRDRDGREGPRGEKGDPGLPGAAGQAGMPGQAGPVGPKGDNGSVGEPGPKGDTGPSGPPGPPGVPGPAGREGALGKQGNIGPQGKPGPKGEAGPKGEVGAPGMQGSAGARGLAGPKGERGVPGERGVPGNTGAAGSAGAMGPQGSPGARGPPGLKGDKGIPGDKGAKGESGLPDVASLRQQVEALQGQVQHLQAAFSQYKKVELFPNGQSVGEKIFKTAQFVKPFTEAQLLCTQAGGQLASPRSAAENAALQQLVVAKNEAAFLSMTDSKTEGKFTYPTGESLVYSNWAPGEPNDDGGSEDCVEIFTNGKWNDAACGEKRLVVCEF,glycan array binding signal (z-score),Fuc(a1-2)Gal,-0.154
same,glycan array binding signal (z-score),Fuc(a1-2)Gal(b1-3)GalNAc,-0.397
same,glycan array binding signal (z-score),[1],0.482
same,glycan array binding signal (z-score),[2],-0.236
same,glycan array binding signal (z-score),[3],-0.174
same,glycan array binding signal (z-score),Fuc(a1-2)Gal(b1-3)GlcNAc,-0.335
same,glycan array binding signal (z-score),[4],-0.397
same,glycan array binding signal (z-score),[5],-0.181
same,glycan array binding signal (z-score),Fuc(a1-2)Gal(b1-4)Glc,-0.306
same,glycan array binding signal (z-score),Fuc(a1-2)Gal(b1-4)Glc6S,-0.212
same,glycan array binding signal (z-score),Fuc(a1-2)Gal(b1-4)GlcNAc,-0.207
same,glycan array binding signal (z-score),[6],-0.224
same,glycan array binding signal (z-score),[7],-0.209
same,glycan array binding signal (z-score),[8],0.149
same,glycan array binding signal (z-score),[9],-0.193
same,glycan array binding signal (z-score),[10],-0.051
same,glycan array binding signal (z-score),[11],-0.243
same,glycan array binding signal (z-score),Fuc(a1-2)Gal6S(b1-4)Glc,-0.138
same,glycan array binding signal (z-score),[12],0.369
same,glycan array binding signal (z-score),[13],0.247
same,glycan array binding signal (z-score),Fuc(a1-2)[Gal(a1-3)]Gal,0.161
same,glycan array binding signal (z-score),[14],-0.057
same,glycan array binding signal (z-score),[15],-0.375
same,glycan array binding signal (z-score),[16],0.03
same,glycan array binding signal (z-score),[17],-0.191
same,glycan array binding signal (z-score),[18],-0.318
same,glycan array binding signal (z-score),[19],-0.181
same,glycan array binding signal (z-score),[20],-0.17
same,glycan array binding signal (z-score),[21],-0.255
same,glycan array binding signal (z-score),[22],-0.293
